Consider three sequences from article PMC6555819.

The list shows a part of the results.

The assay concerns the target T1, VDR (Homo sapiens) (UniProt P11473).
T1 sequence: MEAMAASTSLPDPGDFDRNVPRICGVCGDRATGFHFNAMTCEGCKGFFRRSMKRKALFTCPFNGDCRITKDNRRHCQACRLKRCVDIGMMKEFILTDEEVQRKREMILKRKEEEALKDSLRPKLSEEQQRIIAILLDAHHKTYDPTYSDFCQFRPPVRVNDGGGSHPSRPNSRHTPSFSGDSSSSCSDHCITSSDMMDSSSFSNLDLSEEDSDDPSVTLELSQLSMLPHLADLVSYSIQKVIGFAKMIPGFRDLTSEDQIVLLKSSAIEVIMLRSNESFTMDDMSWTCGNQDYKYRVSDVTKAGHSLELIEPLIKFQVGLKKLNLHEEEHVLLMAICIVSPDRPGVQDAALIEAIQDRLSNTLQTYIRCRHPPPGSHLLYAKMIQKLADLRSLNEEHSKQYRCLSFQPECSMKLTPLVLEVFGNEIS
Conditions: 270 nM, no RXRa, PBS pH 7.4, 2% milk, 0.02% Triton X-100, 1 mM DTT, BSA, 0.4 mg/ml salmon testes DNA; double strand, one strand shown.
Take “GCTGGAAGATGAAGAAGAACTATTGCTCGATGGAGAGCGATTGACAGCGTAGAATGAAGG”: the binding signal (PBM z-score against 500 random probes) is -0.49.

As for “GCTCCCAGCCACTCAGGAGGCTGAGGCAGGAGAATTGCGATTGACAGCGTAGAATGAAGG”, the binding signal (PBM z-score against 500 random probes) was -0.84.

As for “GCATCTGCATAGAGCTAGAGCTATTGATTCAAAGAGGCGATTGACAGCGTAGAATGAAGG”, the binding signal (PBM z-score against 500 random probes) is -1.55.
